# Source: the supplement of paper PMC3334620
# Whole data set: some 33,000 sequences, median “E-score (-0.5 to 0.5)” near -0.012, cut for the highest 2% near 0.27. This is one part of the list.
# Target: T1, Vhr1 (UniProt P40522)
# T1 sequence: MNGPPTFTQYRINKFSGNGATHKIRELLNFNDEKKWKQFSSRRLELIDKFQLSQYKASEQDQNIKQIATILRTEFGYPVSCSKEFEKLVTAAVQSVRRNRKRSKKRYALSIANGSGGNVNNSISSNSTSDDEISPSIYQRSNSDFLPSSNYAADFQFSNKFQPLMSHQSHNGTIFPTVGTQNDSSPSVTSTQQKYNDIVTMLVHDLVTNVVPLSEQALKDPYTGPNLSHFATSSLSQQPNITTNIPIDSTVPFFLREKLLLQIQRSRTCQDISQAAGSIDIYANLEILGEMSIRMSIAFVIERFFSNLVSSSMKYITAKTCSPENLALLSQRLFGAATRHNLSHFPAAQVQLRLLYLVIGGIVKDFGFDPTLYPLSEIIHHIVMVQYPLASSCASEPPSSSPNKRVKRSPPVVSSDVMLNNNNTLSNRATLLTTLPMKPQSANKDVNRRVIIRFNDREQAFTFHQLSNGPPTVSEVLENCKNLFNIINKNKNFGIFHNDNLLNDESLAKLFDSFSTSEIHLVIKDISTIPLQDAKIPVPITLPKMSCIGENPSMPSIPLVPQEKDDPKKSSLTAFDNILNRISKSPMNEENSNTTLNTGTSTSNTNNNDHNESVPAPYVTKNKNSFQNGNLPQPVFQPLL
# Assay: PBM E-score (8-mer binding enrichment) (E-score (-0.5 to 0.5)); higher = stronger / more preferred TF binding; most listed sequences are background and not binding sites
# Settings: protein concentration: 200 nM; construct: GST-full length
# Method: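 Universal 'all 10-mer' protein binding microarrays (Agilent AMADID 015681) probed with GST-tagged S. cerevisiae TFs (full-length or DBD) made by in vitro transcription/translation (PURExpress), about 100-200 nM. Bound TF was detected with fluorescent anti-GST. Each ungapped 8-mer (which stands for itself and its reverse complement) is scored by the PBM enrichment score (E-score), a modified Wilcoxon-Mann-Whitney statistic from -0.5 to +0.5, computed with the Universal PBM Analysis Suite. Scale: above 0.35 generally sequence-specific binding.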
row,Sequence,PBM E-score
1,AACGGAGG,-0.194
2,AGCATTGC,-0.114
3,GGGTACAA,0.178
4,CGGCAAAG,-0.0116
5,ACGTTTCA,-0.142
6,CGACCGGC,0.0826
7,ACCATCAC,0.0424
8,GCGAACTA,0.0464
9,GTAGAGTA,0.0421
10,GGTCACAA,0.0224
11,GACTAATC,0.222
12,GTCCCAAC,0.0257
13,ACTAATTC,0.1
14,CAAGGTGC,-0.203
15,AACCTGGC,-0.0208
16,CGAGATGA,0.0577
17,CCCCTGGC,-0.00704
18,CAGTGAAG,-0.111
19,ATCTTGGG,0.0129
20,AGTGATTC,0.285
21,ACGGTAAT,-0.0641
22,ACATCAGA,0.0668
23,AAAGGCCC,-0.253
24,AGCATTCA,-0.194
25,GATGCATC,0.0854

row,Sequence,PBM E-score
1,ATCCATAA,0.19
2,CATTTAAC,-0.181
3,CTCGCCAC,0.107
4,CCCAAGGA,-0.133
5,GTATCGAC,0.0581
6,ATTCACCG,0.159
7,CAACGGGG,0.0866
8,CCGTCAAG,-0.243
9,AACAATAA,0.0728
10,ATCACCAT,0.265
11,AAACGCCG,-0.0231
12,AGTCTAAC,-0.214
13,ACCTCTGA,0.128
14,GAGAGGGC,-0.255
15,GCAACACA,0.115
16,AACCATGT,0.231
17,ACCGAATG,0.0141
18,CACATGAA,0.0563
19,ATAAGAAC,-0.00548
20,TCTTCGAA,-0.0872
21,CTAAGAAC,0.0818
22,AACTTATA,0.0682
23,ATCAGCGG,0.234
24,CAGCACGG,0.11
25,ACGAGTAG,0.0242

row,Sequence,PBM E-score
1,AGGCTCTC,-0.32
2,CCCTAGTC,0.0644
3,CCACCGTA,0.189
4,GAAGGCTC,-0.228
5,CTGACGCA,-0.244
6,CAATGCCG,-0.0628
7,GATTAGCC,0.18
8,TATTCTCA,0.0274
9,AAATACGG,-0.11
10,AATTTGCC,-0.243
11,CTTCGACC,-0.033
12,ATACCAAT,0.15
13,CCTGAGCG,-0.051
14,TACGTCAA,-0.139
15,ACCATTAA,0.181
16,ATTCCTTA,-0.17
17,AACCCAGA,0.0444
18,AACTAATG,-0.037
19,CTGTGCAA,-0.00898
20,CCGTGACC,0.109
21,AACGGTGT,0.0152
22,GCAGTGAA,0.0869
23,CAGTACTC,0.117
24,CACACATA,0.204
25,CTTGTAGA,-0.262

row,Sequence,PBM E-score
1,CGAACTAG,-0.0301
2,CAGTTTCA,-0.0642
3,CGTCTATC,-0.0309
4,GTACCCAC,0.0583
5,CATAGTAC,0.238
6,GAACCCTC,-0.19
7,GGTTCCGA,0.171
8,CTTCCGCC,-0.0698
9,ATCATTGA,0.127
10,ATGAGAGC,-0.0727
11,GTATGACA,0.0489
12,GAACTTAA,-0.206
13,AGGCACGC,-0.0307
14,TTAACGAA,-0.03
15,GTTTGCTA,0.0847
16,CCACTATC,0.0897
17,GTAACATA,0.245
18,AGCAGTGC,-0.224
19,TTGCGCAA,-0.269
20,TAGGCGGA,-0.0289
21,CGGTGGGC,-0.0877
22,CAACCTTG,-0.0309
23,AATTTACT,-0.11
24,TAGGGTCA,0.0976
25,ACATCGAC,0.0775

row,Sequence,PBM E-score
1,AACTTCGA,0.00079
2,CTCAGATA,0.141
3,AGAACGTG,-0.0258
4,AATAACAT,0.115
5,CTTATTGC,-0.177
6,AAGTATGT,0.0745
7,CAGGCGCA,-0.153
8,AGGCGCAA,-0.0578
9,TTCCGCAA,-0.00609
10,ATCCGAAG,-0.13
11,ATATCCCG,0.135
12,CCCGGACG,-0.133
13,ATCACCAA,0.247
14,AGACCGCC,-0.0196
15,CGCATTTA,-0.0852
16,CCCAGAGG,-0.231
17,ATCCCACC,0.153
18,CGGGTTGA,0.0628
19,CCTGGAAA,-0.0751
20,AAACGGCC,-0.0559
21,GTTCCCTA,-0.146
22,ACTACGAA,-0.0367
23,GCTACCTA,-0.0535
24,GTGATGCA,0.24
25,GTGGAGAA,-0.13

row,Sequence,PBM E-score
1,TACGCGTA,-0.00031
2,CCTTCGCA,-0.171
3,CCGGGGTC,0.0657
4,ATCAAGGC,0.0302
5,ATGGCTGG,0.128
6,ACATCCGT,-0.0304
7,CTCAGCAC,0.0595
8,CACCAGCA,0.0208
9,ACGCAACA,-0.00714
10,GATCACCA,0.12
11,CGGAAAAC,-0.244
12,CATAGATC,0.0557
13,CGTTCGAA,-0.0202
14,AATGCAGA,0.0594
15,CCCCTCGC,-0.0024
16,GGACTACA,0.146
17,GCTGATAA,-0.143
18,AACGTATA,0.082
19,CGCATGAG,0.188
20,ATTACAAT,0.0868
21,ATTCGTCG,0.055
22,TGGTGTAA,0.0856
23,CACTCCCA,-0.0167
24,AAACTACG,0.0254
25,AACTAAAA,-0.168

row,Sequence,PBM E-score
1,CGTCCGTC,-0.0544
2,AGTCCGCA,0.17
3,TCTTGTCA,-0.135
4,CGATAATA,-0.0369
5,TAAATTTA,0.178
6,AACGTCCG,-0.128
7,GATCACTA,0.0933
8,ATGGGTAC,0.209
9,TAAAGCGA,0.0308
10,AACCATCT,0.0784
11,AGTTTAGG,-0.324
12,CACGATGC,0.0886
13,GAGCGGTA,-0.0335
14,CTTCGTCC,-0.161
15,ACAAAAGA,-0.00302
16,AGTATGGC,0.101
17,CTGACAAC,0.129
18,ATCAGGAC,0.0306
19,AGGTTTCG,-0.0888
20,AAGCTGAA,-0.22
21,ATCGAGTG,0.182
22,ACTTGCCG,-0.031
